Test results taken from the supplement of paper PMC9446081.
Screen size: about 39,000 compounds; about 220 (0.56%) showed activity. The list shows a part of the results.

System: Escherichia coli K-12 BW25113
Assay: relative growth (OD600 normalised to plate interquartile mean) (fraction); higher = less growth inhibition, active = 0.2 or less
Conditions: 50 µM; LB; incubation time: overnight (16-24 h)
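Further: static incubation at 37 °C against the wild-type strain, values averaged over two biological replicates.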

SMILES | relative growth
C[C@@H]1CN([C@@H](C)CO)C(=O)Cc2cc(NC(=O)CCCCCC(=O)Nc3ccccc3N)ccc2O[C@H]1CN(C)C(=O)Nc1ccc(F)cc1 | inactive: 0.979
C[C@H](CO)N1C[C@H](C)[C@@H](CN(C)Cc2ccccc2)OCCCC[C@H](C)Oc2ccc(NC(=O)Nc3ccc(F)cc3)cc2C1=O | inactive: 1.01
COc1ccccc1C#Cc1cnc2c(c1)C(=O)N([C@H](C)CO)C[C@@H](C)[C@H](CN(C)C(=O)CN(C)C)O2 | inactive: 1.01
C[C@H]1CN([C@@H](C)CO)C(=O)Cc2cc(NC(=O)Nc3ccc(C(F)(F)F)cc3)ccc2O[C@H]1CN(C)Cc1ccc(-c2ccccc2)cc1 | inactive: 1.02
CC1(C)SC2C(NC(=O)C(N)c3ccccc3)C(=O)N2C1C(=O)[O-].[Na+] (stereo unspecified) | inactive: 1.06
C[C@@H]1CCCCO[C@@H](CN(C)C(=O)Nc2ccccc2)[C@@H](C)CN([C@H](C)CO)C(=O)c2cc(NS(=O)(=O)c3ccccc3)ccc2O1 | inactive: 1.01
O=C(C[C@H]1CC[C@@H]2[C@H](COC[C@@H](O)CN2C(=O)c2ccccn2)O1)NC1CCC1 | inactive: 0.98
NC(=O)NCCCC(N)C(=O)O (stereo unspecified) | inactive: 1.07
C[C@@H]1CN([C@H](C)CO)C(=O)c2cccc(NS(=O)(=O)c3ccc(F)cc3)c2O[C@H]1CN(C)S(=O)(=O)c1ccc(F)cc1 | inactive: 1
C[C@H](CO)N1C[C@H](C)[C@@H](CN(C)C(=O)Nc2ccccc2)Oc2c(NS(C)(=O)=O)cccc2C1=O | inactive: 0.902
COc1cccc(NC(=O)N[C@@H]2C=C[C@H](CC(=O)N3CCN(C)CC3)O[C@@H]2CO)c1 | inactive: 1.01
C[C@@H]1CN([C@@H](C)CO)C(=O)c2cccc(NC(=O)c3cnccn3)c2O[C@H]1CN(C)Cc1ccncc1 | inactive: 1
C=CCC[C@@H](Cc1ccc(F)cc1)C(=O)OC[C@@H]1CCCN1C(=O)[C@H](CC=C)CC(=O)N(CCO)Cc1ccccc1 | inactive: 1.03
COC(=O)CCCCCCC(=O)Nc1ccc([C@H]2O[C@@H](CSc3nc(-c4ccccc4)c(-c4ccccc4)o3)C[C@H](c3ccc([N+](=O)[O-])cc3)O2)cc1 | inactive: 1
CC(C)NC(=O)Nc1ccc2c(c1)C(=O)N([C@H](C)CO)C[C@@H](C)[C@@H](CN(C)CC1CCCCC1)OCCCC[C@@H](C)O2 | inactive: 1.01
C[C@H]1CN([C@@H](C)CO)C(=O)c2cccc(NC(=O)Nc3cccc4ccccc34)c2O[C@H]1CN(C)C(=O)Nc1ccc2c(c1)OCO2 | inactive: 1.03
C[C@@H]1CCCCO[C@@H](CN(C)S(=O)(=O)c2cccs2)[C@H](C)CN([C@@H](C)CO)C(=O)c2cc(NS(=O)(=O)c3ccc(Cl)cc3)ccc2O1 | inactive: 1.04
C[C@H](CO)N1C[C@H](C)[C@H](CN(C)S(=O)(=O)c2cccc(F)c2)Oc2ncc(C#CC3(O)CCCC3)cc2C1=O | inactive: 1.01
C[C@@H]1CN([C@@H](C)CO)C(=O)c2ccccc2-c2ccccc2CO[C@@H]1CN(C)C(=O)Nc1ccc(F)cc1 | inactive: 0.974
C[C@H]1CCCCO[C@@H](CN(C)C(=O)Nc2ccc(C(F)(F)F)cc2)[C@@H](C)CN([C@@H](C)CO)C(=O)c2cc(NC(=O)CCC(F)(F)F)ccc2O1 | inactive: 1
O=C(C[C@@H]1C=C[C@H](NC(=O)CN2CCOCC2)[C@@H](CO)O1)NCc1cccc(F)c1 | inactive: 1.02

SMILES | relative growth
CCCNC1CCc2nc(N)sc2C1.Cl.Cl (stereo unspecified) | inactive: 0.934
COc1ccc(S(=O)(=O)Nc2ccc3c(c2)CC(=O)N([C@H](C)CO)C[C@H](C)[C@@H](CN(C)S(=O)(=O)c2ccc(F)cc2)O3)cc1 | inactive: 0.982
COc1ccc(NC(=O)N(C)C[C@@H]2OCCCC[C@H](C)Oc3ccc(NC(=O)Cc4ccccc4)cc3C(=O)N([C@H](C)CO)C[C@H]2C)cc1 | inactive: 0.984
COc1ccc(CN(C)C[C@@H]2Oc3ccc(NS(=O)(=O)c4cn(C)cn4)cc3C(=O)N([C@@H](C)CO)C[C@@H]2C)cc1 | inactive: 0.992
Cc1noc(C)c1NC(=O)Nc1ccc2c(c1)CC(=O)N([C@@H](C)CO)C[C@@H](C)[C@H](CN(C)Cc1ccc(Oc3ccccc3)cc1)O2 | inactive: 1.06
COC(=O)c1c(CC[C@@H](CO)NC(=O)NCCn2cc(C3(O)CCCC3)nn2)oc(C(C)=O)c1C(=O)OC | inactive: 0.982
Cc1ccc(S(=O)(=O)Nc2cccc3c2O[C@@H](CN(C)S(=O)(=O)c2ccccc2)[C@H](C)CN([C@@H](C)CO)C3=O)cc1 | inactive: 0.982
Cc1ccc(S(=O)(=O)Nc2cccc3c2O[C@@H](CN(C)S(C)(=O)=O)[C@@H](C)CN([C@H](C)CO)C3=O)cc1 | inactive: 0.969
COCC(=O)NCc1cc(=O)n2c(n1)CN(c1ncccn1)CCC2 | inactive: 1.01
CC(C)N1C[C@H](C)[C@@H](CN(C)Cc2ccc(Oc3ccccc3)cc2)Oc2c(NC(=O)C3CCNCC3)cccc2C1=O | inactive: 0.958
Nc1nnc(-c2ccc([N+](=O)[O-])o2)o1 | inactive: 0.258
CC1=CC(=O)C2=C(C)CCC3C(C)C(=O)OC3C12 (stereo unspecified) | inactive: 0.758
COc1ccc(NC(=O)Nc2ccc3c(c2)C(=O)N([C@@H](C)CO)C[C@@H](C)[C@H](CN(C)C(=O)Nc2cccc4ccccc24)OCCCC[C@H](C)O3)cc1 | inactive: 1.03
C[C@@H]1CN([C@@H](C)CO)C(=O)c2cccc(NS(=O)(=O)c3cccs3)c2O[C@H]1CN(C)Cc1ccc(-c2ccccc2)cc1 | inactive: 0.997
C[C@H]1CCCCO[C@H](CN(C)C(=O)Cc2ccccc2)[C@@H](C)CN([C@@H](C)CO)C(=O)c2cc(NC(=O)C3CCCCC3)ccc2O1 | inactive: 0.966
O=C(Nc1ccc(Oc2ccc(Cl)cc2)c(Cl)c1)c1cc(I)cc(I)c1O | inactive: 0.987
COc1ccc(NC(=O)Nc2ccc3c(c2)C(=O)N([C@H](C)CO)C[C@@H](C)[C@H](CN(C)S(=O)(=O)c2ccccc2)OCCCC[C@@H](C)O3)cc1 | inactive: 1
COc1cccc(S(=O)(=O)N(C)C[C@@H]2Oc3ncc(C#CC(C)C)cc3C(=O)N([C@H](C)CO)C[C@H]2C)c1 | inactive: 1.03
C[C@@H]1CN([C@@H](C)CO)C(=O)c2cc(NC(=O)Nc3ccc(C(F)(F)F)cc3)ccc2O[C@H]1CN(C)Cc1ccc2c(c1)OCO2 | inactive: 0.964
OC[C@@H](O)CN1CCN(c2ccccc2)CC1 | inactive: 1.02
NC1(C(=O)N2CCCN(S(=O)(=O)c3ccccc3)CC2)Cc2ccccc2C1 | inactive: 0.992

SMILES | relative growth
O=C(NC1CCC1)[C@H]1[C@H](CO)[C@H]2Cn3c(cccc3=O)[C@H]2N1CC1CCOCC1 | inactive: 0.995
Cc1cncc2cccc(S(=O)(=O)NCCCN(C/C=C/c3ccc(Br)cc3)C/C=C/c3ccc(Br)cc3)c12 | inactive: 0.988
O=C(C[C@@H]1C[C@H]2c3cc(NC(=O)c4ccc5c(c4)OCO5)ccc3O[C@H]2[C@H](CO)O1)NCCc1ccccc1 | inactive: 1
C[C@H](CO)N1C[C@H](C)[C@H](CN(C)Cc2ccc3c(c2)OCO3)Oc2ccc(NC(=O)CCCN(C)C)cc2C1=O | inactive: 1.01
C[C@@H]1CN([C@H](C)CO)C(=O)c2cc(C#Cc3ccc(F)cc3)cnc2O[C@H]1CN(C)Cc1ccccn1 | inactive: 0.986
O=C(C[C@@H]1C[C@H]2c3cc(NS(=O)(=O)c4ccc(F)cc4)ccc3O[C@H]2[C@H](CO)O1)NCc1ccccc1F | inactive: 0.991
C[C@H](CO)N1C[C@H](C)[C@H](CN(C)Cc2ccc(F)cc2)Oc2cc(C#CCN(C)C)ccc2S1(=O)=O | inactive: 0.975
C[C@@H]1CN([C@@H](C)CO)C(=O)c2cc(NC(=O)NC3CCCCC3)ccc2O[C@@H](C)CCCCO[C@H]1CN(C)Cc1ccc(C(=O)Nc2ccccc2N)cc1 | inactive: 0.976
C[C@@H]1CN([C@H](C)CO)C(=O)c2cc(NS(=O)(=O)c3ccc(F)cc3)ccc2O[C@@H]1CN(C)CC1CC1 | inactive: 1.01
Nc1ncccc1O | inactive: 1.03
NC[C@H]1OB(O)c2c(OCCCO)cccc21 | active: 0.04
C[C@@H]1CN([C@@H](C)CO)C(=O)c2cc(NC(=O)Cc3cn(C)c4ccccc34)ccc2O[C@H]1CN(C)S(=O)(=O)c1cn(C)cn1 | inactive: 0.974
COc1ccc(S(=O)(=O)N[C@H]2C=C[C@@H](CC(=O)N3CCN(c4ccccc4)CC3)O[C@@H]2CO)cc1 | inactive: 1.01
COc1ccc(NC(=O)N(C)C[C@H]2OCCCC[C@H](C)Oc3ccc(NC(=O)Nc4ccccc4)cc3C(=O)N([C@@H](C)CO)C[C@H]2C)cc1 | inactive: 1.01
COc1ccc(S(=O)(=O)N(C)C[C@@H]2Oc3c(NS(=O)(=O)c4c(C)noc4C)cccc3C(=O)N([C@H](C)CO)C[C@@H]2C)cc1 | inactive: 0.999
C[C@@H]1CN([C@H](C)CO)C(=O)Cc2cc(NS(=O)(=O)c3ccccc3)ccc2O[C@@H]1CN(C)Cc1ccc2c(c1)OCO2 | inactive: 0.989
COc1cccc(CN(C)C[C@H]2OCc3ccccc3-c3c(n(C)c4ccccc34)C(=O)N([C@@H](C)CO)C[C@H]2C)c1 | inactive: 0.982
C[C@@H]1CCCCO[C@@H](CN(C)C(=O)CCCN(C)C)[C@H](C)CN([C@@H](C)CO)C(=O)c2cc(NS(C)(=O)=O)ccc2O1 | inactive: 0.989
O=C(C[C@H]1C[C@@H]2c3cc(NC(=O)C4CCOCC4)ccc3O[C@@H]2[C@@H](CO)O1)NCc1cc(F)ccc1F | inactive: 0.984
